In PubChem BioAssay AID488969 (Vanderbilt High Throughput Screening Facility, 2010):
Whole data set: some 110,000 compounds, median “z-score” near -0.1, cut for the highest 2% near 2. This is one part of the list. Activity calls are given as the source filed them.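 How the source made its calls: active means z-score in the third read window above 3 or below -3; inactive means the rest.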

Target: Metabotropic glutamate receptor 8 (Rattus norvegicus) (UniProt P70579)
Assay: rat mGluR8 modulators via GIRK flux, primary screen, cell-based, thallium flux, HTS (AID 488969)
Settings: HEK293 rat mGluR8, GIRK (G protein-gated inwardly rectifying potassium channel) thallium flux, FluoZin2; at 10 µM; stronger effect = higher value; submaximal glutamate (EC20) added with thallium

Chain of UniProt P70579 (P70579 whole entry, looked up): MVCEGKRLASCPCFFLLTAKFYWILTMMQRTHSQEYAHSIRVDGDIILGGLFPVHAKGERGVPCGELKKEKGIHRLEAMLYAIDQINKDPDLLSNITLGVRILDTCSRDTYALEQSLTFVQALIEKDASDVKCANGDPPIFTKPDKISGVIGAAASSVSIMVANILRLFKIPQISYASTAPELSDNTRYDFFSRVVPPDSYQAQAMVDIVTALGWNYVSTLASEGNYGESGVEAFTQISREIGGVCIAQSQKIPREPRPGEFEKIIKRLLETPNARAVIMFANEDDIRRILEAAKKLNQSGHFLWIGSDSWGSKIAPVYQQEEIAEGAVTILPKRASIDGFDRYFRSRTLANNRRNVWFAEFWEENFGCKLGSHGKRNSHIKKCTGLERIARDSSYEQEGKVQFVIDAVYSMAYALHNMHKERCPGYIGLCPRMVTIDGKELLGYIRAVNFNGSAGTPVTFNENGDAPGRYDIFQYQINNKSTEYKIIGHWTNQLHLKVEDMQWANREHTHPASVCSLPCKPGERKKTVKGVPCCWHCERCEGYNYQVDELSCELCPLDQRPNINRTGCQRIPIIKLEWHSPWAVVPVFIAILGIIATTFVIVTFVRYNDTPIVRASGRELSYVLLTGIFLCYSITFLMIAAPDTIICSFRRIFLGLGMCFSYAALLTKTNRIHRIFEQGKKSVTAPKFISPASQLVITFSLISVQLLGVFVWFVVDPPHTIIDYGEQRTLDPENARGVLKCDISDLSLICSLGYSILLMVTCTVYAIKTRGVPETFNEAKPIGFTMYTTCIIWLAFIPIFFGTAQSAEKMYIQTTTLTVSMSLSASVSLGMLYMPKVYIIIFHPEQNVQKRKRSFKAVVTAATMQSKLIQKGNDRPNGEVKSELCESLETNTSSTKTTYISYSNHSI

Structure (SMILES) | z-score
CC1=C(C(=O)Nc2ccc(C)cc2C)C(c2ccc(Cl)cc2)n2nc(C(=O)OC(C)C)nc2N1 (stereo unspecified) | -0.0741
Cc1ccc(C(=O)NCCc2sc(C)nc2C)cc1 | -0.323
Cc1ccc(S(=O)(=O)Nc2ccc(Br)cc2C(NCC(=O)O)c2ccccc2)cc1 (stereo unspecified) | -0.841
COC(=O)c1ccccc1NC(=O)CSc1nnc(-c2ccc(C)cc2)o1 | -0.262
Cc1ccc(OCCn2cc(/C=C(\C#N)C(=O)NCC3CCCO3)c3ccccc32)cc1C (stereo unspecified) | -0.333
O=C(Cc1ccccc1)Nc1ccc(N2CCOCC2)cc1N1CCOCC1 | -0.544
O=C(COc1ccc([N+](=O)[O-])cc1)NCc1cccnc1 | -0.0376
CC(C)(C)NC(=O)Cn1nnc(-c2cccs2)n1 | -0.167
COc1cc(OC)c(OC)cc1NC(=O)CC1COc2ccccc2O1 (stereo unspecified) | -0.0814
CN(C)c1ccc(C(=O)c2ccc(N(C)C)c(N)c2)cc1N | -0.143
Cc1ccc(-n2nnc3c(SCC(=O)NCc4ccco4)ncnc32)cc1 | 0.269
Cc1csc(SCc2nc3sc4c(c3c(=O)[nH]2)CCC4)n1 | 0.454
Nc1nonc1-c1nc2ccccc2n1Cc1ccc(F)cc1 | -0.145
CCOC(=O)N1CCN(C(=O)c2ccc3c(=O)n(-c4ccc(F)cc4)c(=S)[nH]c3c2)CC1 | -1.16
COC(=O)c1ccccc1NC(=S)NC(=O)C1CC1 | -0.189
Cc1ccc(S(=O)(=O)NCCCCCC(=O)N(C)C)cc1 | 2.19
O=C(CN1CCCCCC1)Nc1ccc(F)c(F)c1 | 0.471
CCOC(=O)Cc1cc(=O)n2[nH]c(C)c(-c3ccc(OC)cc3)c2n1 | -0.933
O=C(c1ccc(Br)cc1)c1cc([N+](=O)[O-])ccc1N1CCCCC1 | -0.166
CN1C(=O)C(CC(=O)N2CCN(C(c3ccccc3)c3ccccc3)CC2)N(C)C1=O (stereo unspecified) | 0.633
Cc1c(C(=O)O)oc2c3c(ccc12)OCCO3 | -0.0103
CC(C)CNC(=O)NC(=O)COC(=O)c1cccc(NS(=O)(=O)c2ccc(F)c(F)c2)c1 | -0.289
O=c1[nH]cnc2c1sc1nc3c(c(-c4ccc(Cl)cc4)c12)CCC3 | -0.722

Structure (SMILES) | z-score
CN(Cc1ccccc1)S(=O)(=O)c1ccc(S(=O)(=O)N(Cc2ccc(F)cc2)C2CCCC2)cc1 | -0.232
CCOc1ccc(N2CC(C(=O)NCCN3C(=O)S/C(=C\c4ccc(OC)cc4)C3=O)CC2=O)cc1 (stereo unspecified) | 0.109
CC(=O)Nc1ccc2c(c1)N(C(=O)CN(C)C)c1ccccc1CC2 | 0.0846
N#CC1=C(N)Oc2cc3c(cc2C1c1ccc(Cl)cc1)OCO3 (stereo unspecified) | 0.119
O=C(Cc1cccc2ccccc12)N/N=C/c1ccc(OC(=O)/C=C/c2ccco2)cc1 | -0.0231
CC1CCCCC1NC(=O)c1ccc(N2CCCC2=O)cc1 (stereo unspecified) | 0.0276
CC(=O)c1c(C(C)=O)c(C)n(C2CCCCC2)c1C | 0.23
CCS(=O)(=O)N1Cc2ccccc2CC1C(=O)OCC(=O)Nc1ccc(C)cc1 (stereo unspecified) | -0.847
COc1cccc(N2C(=O)C3CCCN3C2c2ccc(Cl)cc2)c1 (stereo unspecified) | -0.0283
COc1ccc(C)cc1NC(=O)CN(C)S(=O)(=O)c1cnc[nH]1 | 0.179
COc1ccc(N/C(N)=N/c2nc(CSc3ccc(Cl)cc3)cc(=O)[nH]2)cc1 | -0.284
COCC(=O)Nc1ccc(C(N)=O)cc1 | -0.00575
O=C(N/N=C/c1cc(Br)c(Br)o1)C(O)c1ccccc1 (stereo unspecified) | -0.119
CC(=O)NS(=O)(=O)c1ccc(NC(=O)/C=C/c2ccccc2Cl)cc1 | -0.0146
Cc1nc(C)c(C(=O)C2=C(O)C(=O)N(CCCn3ccnc3)C2c2ccc(Cl)cc2)s1 (stereo unspecified) | 0.983
Clc1ccc(OCc2nc(-c3ccncc3)no2)c(Cl)c1 | -0.0686
O=c1c2cnn(-c3ccccc3)c2nnn1/N=C/c1cccnc1 | 0.0346
O=C(CN(Cc1ccccc1)S(=O)(=O)c1ccc2c(c1)OCCO2)N/N=C/c1ccc(F)cc1 | 0.352
c1ccc(N2CCN(c3ncnc4sc5c(c34)CCC5)CC2)cc1 | -0.0951
O=Cc1ccc(-c2ccccc2OC(F)(F)F)o1 | -0.317
O=C(Nc1ccc(N2CCOCC2)c(Cl)c1)c1cc2ccccc2o1 | -0.897
Cc1ccc(NC(=S)NN2CCN(C)CC2)cc1 | -2.12
CC(Sc1nnc(C(C)N(C)C)n1-c1ccc(Cl)cc1)C(=O)Nc1ccc2c(c1)OCO2 (stereo unspecified) | -0.446

Structure (SMILES) | z-score
COC(=O)c1cccnc1N1CCN(c2ccccc2F)CC1 | -0.0799
Cc1c(C=O)c(C=O)c(C)n1Cc1ccccc1 | -0.295
O=C(NCCCn1ccnc1)c1ccc(Cl)c(S(=O)(=O)N2CCOCC2)c1 | -0.619
O=C(Nc1nc(-c2ccc(S(=O)(=O)N3CCCC3)cc2)cs1)c1ccco1 | -0.0484
C/C(=N\OC(=O)c1ccc(Cl)c(Cl)c1)c1sc(C)nc1C | -0.197
O=C(Nc1cccc2ccccc12)C1CCN(C(=O)Cc2ccccc2)CC1 | -0.0484
Cc1cc(Nc2ccccc2)n(-c2cccc(Cl)c2)n1 | -0.114
C=CCn1c(SCC(=O)NCc2ccco2)nc2sc(C)c(C)c2c1=O | -0.948
O=[N+]([O-])c1ncn(Cc2c(Cl)cccc2Cl)n1 | 0.0141
C=CCNc1nc(-c2ccc(O)c(C(N)=O)c2)cs1 | -0.471
CCN(CC)CCCNC(=O)C1c2ccccc2Oc2ccccc21 | 0.199
S=C(c1ccc(-c2ccccc2Cl)o1)N1CCCCC1 | 0.632
Cc1nc2ccc(NC(=O)c3ccc(S(=O)(=O)N4CCOCC4)cc3)cc2s1 | -0.182
COc1cc(C(=O)O/N=C(\N)c2ccncc2)cc(OC)c1OC | -0.016
CC(=O)c1c(COC(=O)c2ccccc2)nc2ccccc2[n+]1[O-] | -0.211
Cc1ccc(OCC(=O)NNC(=O)CCC(=O)NCc2ccccc2)cc1 | -0.189
COc1ccccc1-c1nnc(SC2CCc3ccccc3NC2=O)s1 (stereo unspecified) | 0.0734
Cc1ccc(-n2c(O)c(/C=C3/C(c4ccccc4)=Nc4ccccc43)c(=O)[nH]c2=O)cc1 | -0.911
C/C(NC(=O)c1ccccc1F)=C1\C(=O)C[C@@H]2[C@H]1C2(C)C | -0.743
O=C(O)Cn1c(=O)cnc2ccccc21 | 0.0695
Cc1onc(-c2ccccc2Cl)c1C(=O)Nc1nnc(-c2ccc(Br)cc2)s1 | 0.231
CCCCN1C(=O)CC(Nc2ccc(CC)cc2)C1=O (stereo unspecified) | -0.437
Cc1[nH]nc2c1C(c1ccccc1)C1=C(CC(C)(C)CC1=O)N2 (stereo unspecified) | -1.05

Structure (SMILES) | z-score
COc1ccc(OCCCN2CCCC(C)C2)cc1 (stereo unspecified) | 0.314
CCn1c2ccccc2c2cc(NC(=O)c3ccc([N+](=O)[O-])cc3)ccc21 | -0.215
CC1CCCCC12NC(=O)N(CC(=O)NC(=O)Nc1ccc3c(c1)OCCO3)C2=O (stereo unspecified) | -0.152
Cc1ccc2[nH]c3c(c2c1)CN(C(=O)CN1CCN(c2cccc(C)c2C)CC1)CC3 | -0.0108
COc1cccc(OCCCOc2ccccc2C(C)C)c1 | -0.176
COC1(c2ccccc2)NC(=S)NN=C1c1ccccc1 (stereo unspecified) | 0.721
CCOc1ccc(OCC)c(NC(=O)CN(C)S(=O)(=O)c2cnc[nH]2)c1 | 1.24
CCN(C(=O)CSc1nnc(Cn2nnc3ccccc32)o1)c1nc(C)cs1 | 0.00945
CCC(=O)N(CC(=O)Nc1sc(C)c(C)c1C(N)=O)C1CCCCC1 | -0.174
CCc1ccc2c(c1)C(=O)c1ccccc1C2=O | -0.389
CCOC(=O)C1CCCN(C(=O)c2cc(-c3ccccc3)on2)C1 (stereo unspecified) | active: 3.22
CCNC(=S)NNC(=O)c1cccnc1 | 0.0145
COc1ccc(OC)c2sc(NC(=O)CCSc3ccccc3)nc12 | 0.564
CCC(=O)OC1(C#CCOc2ccc(OC)cc2)CCN(C)CC1 | -0.0173
COc1ccc(/C=N\NC(=O)c2cc(OCC(F)(F)F)ccc2OCC(F)(F)F)cc1 | 0.613
O=C(NNC(=O)C1CC1c1ccccc1)c1cccc([N+](=O)[O-])c1 (stereo unspecified) | -0.0643
CCOCCCNC(=O)C1CC(=O)N(C2CCCC2)C1 (stereo unspecified) | 0.576
c1ccc2c(c1)ccc1nnc(-c3ccc4c(c3)OCO4)n12 | -0.637
CCOC(=O)C(NCc1ccccc1OC)(NC(C)=O)C(F)(F)F (stereo unspecified) | 0.381
O=C(Nc1cccc(Cl)c1)c1cc(S(=O)(=O)NCCc2ccc(Cl)cc2)ccc1F | 0.0486
CCNc1nc(=S)nc(NC(C)C)[nH]1 | -0.203
Cn1c(=O)c(=O)n(C)c2cc(S(=O)(=O)N3CCC(Cc4ccccc4)CC3)ccc21 | -0.15
CC(/C=N/NC(=S)Nc1cccc(S(=O)(=O)N(C)C)c1)c1ccccc1 (stereo unspecified) | 1.87

Structure (SMILES) | z-score
COc1ccc(C2C(C(=O)NCc3ccccc3)=C(C)Nc3ncnn32)cc1OC (stereo unspecified) | -0.609
COC(=O)c1cn(N(C)c2ncc(C(F)(F)F)cc2Cl)c(=O)c2ccccc12 | 0.228
COc1ccc(NC(=O)c2ccccc2NC(=O)C2CCCO2)cc1 (stereo unspecified) | 0.019
CCOC(=O)c1cc(-c2ccccc2)sc1NC(=O)CSc1nnnn1C | -1.51
NC(=S)NNC(=O)Nc1cccc(Cl)c1 | 0.406
CCN(CC)CCOC(=O)c1ccc(NC(=O)COc2cc(=O)n(CC)c3ccccc23)cc1 | -0.657
CCOC(=O)c1ccc(-n2cncn2)nc1 | -0.0806
O=C(CCC(=O)Nc1ccccc1Cl)N/N=C/c1ccccc1 | -0.0425
O=C(Cc1cccc2ccccc12)N/N=C/c1ccc(F)cc1 | -0.192
CSc1ccc(S(=O)(=O)NC2CCCCC2)cc1 | -0.248
CCOC(=O)C1=C(N)OC(CCl)=C(C#N)C1c1ccsc1 (stereo unspecified) | -0.228
COc1ccccc1-c1cc(C(=O)NCc2ccc(F)cc2)no1 | -0.214
O=C(Nc1ccccc1)c1ccc(NC2CCCCC2)c(S(=O)(=O)N2CCOCC2)c1 | -0.0587
Cc1ccccc1/C=C1\OC(=O)c2ccccc21 | -0.0296
C/C(=N\OC(=O)c1ccc(Cl)cc1)c1sc(-c2ccccc2)nc1C | -1.01
NC(=O)C(c1ccc(Cl)cc1)c1ccc(Sc2ccc(Cl)cc2)nn1 (stereo unspecified) | 0.175
Fc1ccc(C(c2nnnn2CCc2ccccc2)N2CCCc3ccccc32)cc1 (stereo unspecified) | -0.0894
O=C(NNC(=O)c1ccc(F)cc1)C(=O)N1CCCCC1 | -0.0259
Cc1cccc(OCC(=O)Nc2ccccc2N2CCCCC2)c1 | 0.378
